This passage reports cAMP reporter score and surface expression score results from the GPR68 mutational scans of Howard et al. (2025).

First the molecules themselves.
B1: GPR68, Q15743 (parent)
chain: MGNITADNSSMSCTIDHTIHQTLAPVVYVTVLVVGFPANCLSLYFGYLQIKARNELGVYLCNLTVADLFYICSLPFWLQYVLQHDNWSHGDLSCQVCGILLYENIYISVGFLCCISVDRYLAVAHPFRFHQFRTLKAAVGVSVVIWAKELLTSIYFLMHEEVIEDENQHRVCFEHYPIQAWQRAINYYRFLVGFLFPICLLLASYQGILRAVRRSHGTQKSRKDQIQRLVLSTVVIFLACFLPYHVLLLVRSVWEASCDFAKGVFNAYHFSLLLTSFNCVADPVLYCFVSETTHRDLARLRGACLAFLTCSRTGRAREAYPLGAPEASGKSGAQGEEPELLTKLHPAFQTPNSPGSGGFPTGRLA

In data set [1] the parent is B1. Briefly: cAMP reporter score (Enrich2 score, wild type = 0); higher = more signal; HEK293T, FACS bins.
Data set [2] covers variants of B1. In words: surface expression score (Enrich2 score, wild type = 0); higher = more signal; HEK293T, FACS bins.

The least precise scores are not listed. The source holds two more conditions with little spread; they are left out. In variant names, del marks residues removed and ins residues inserted between the two positions. For some assays here: The concentration of ogerin is not given here.

Regarding R170_V171del, the cAMP reporter score in data set [1] (pH 5.5) was -1.08; in data set [1] (pH 6), -0.79; in data set [1] (pH 6, modulator: ogerin), -0.733; in data set [1] (pH 6.5, modulator: ogerin) it was -0.385. Further, the surface expression score in data set [2] came out at 1.43.

Regarding V171_C172insGSG, the cAMP reporter score is -1.17 in data set [1] (pH 5.5); -0.779 in data set [1] (pH 6); -0.414 in data set [1] (pH 6, modulator: ogerin); -1.11 in data set [1] (pH 6.5, modulator: ogerin). Besides, in data set [2], the surface expression score is -0.666.

As to H159_E160insGSG, the cAMP reporter score in data set [1] (pH 5.5) is -1.05; in data set [1] (pH 6), -1.04; in data set [1] (pH 6, modulator: ogerin), -1.04; in data set [1] (pH 6.5, modulator: ogerin), -1.24. Besides, the surface expression score in data set [2] was found to be 0.202.

On to E161C, for which the cAMP reporter score in data set [1] (pH 5.5) was -1.73; in data set [1] (pH 6), 2.52; in data set [1] (pH 6, modulator: ogerin) it was -0.088; in data set [1] (pH 6.5, modulator: ogerin), 1.74. Also, the surface expression score in data set [2] is -1.54.

Consider E161D, for which the cAMP reporter score is 0.247 in data set [1] (pH 5.5); -0.608 in data set [1] (pH 6); -0.328 in data set [1] (pH 6, modulator: ogerin); -0.969 in data set [1] (pH 6.5, modulator: ogerin). Also, the surface expression score in data set [2] amounted to 0.284.

Turning to E161Y, the cAMP reporter score in data set [1] (pH 5.5) is -0.162; in data set [1] (pH 6) it was -0.19; in data set [1] (pH 6, modulator: ogerin) it was -0.1; in data set [1] (pH 6.5, modulator: ogerin), -0.637. Also, the surface expression score in data set [2] was 2.

For E161K, the cAMP reporter score in data set [1] (pH 5.5) was -0.349; in data set [1] (pH 6) it was -1.11; in data set [1] (pH 6, modulator: ogerin), 1.01; in data set [1] (pH 6.5, modulator: ogerin), -0.961. Further, the surface expression score in data set [2] came out at 1.14.

On to E161F, for which the cAMP reporter score in data set [1] (pH 5.5) was -1.32; in data set [1] (pH 6), -1.23; in data set [1] (pH 6.5, modulator: ogerin), -0.232. In data set [2], the surface expression score was -0.605.

For the variant E161G, the cAMP reporter score in data set [1] (pH 5.5) was 0.605; in data set [1] (pH 6, modulator: ogerin) it was 1; in data set [1] (pH 6.5, modulator: ogerin), 4.18. The surface expression score in data set [2] was determined as 0.31.

Consider E161R, for which the cAMP reporter score was 0.217 in data set [1] (pH 5.5); -0.013 in data set [1] (pH 6); 0.157 in data set [1] (pH 6, modulator: ogerin); -0.1 in data set [1] (pH 6.5, modulator: ogerin). Moreover, in data set [2], the surface expression score stood at 1.41.

For E161N, the cAMP reporter score in data set [1] (pH 5.5) was -0.281; in data set [1] (pH 6), 3.34; in data set [1] (pH 6, modulator: ogerin), -0.006.

With E161P, the cAMP reporter score in data set [1] (pH 5.5) is 0.725; in data set [1] (pH 6) it was 2.73; in data set [1] (pH 6, modulator: ogerin), 0.575; in data set [1] (pH 6.5, modulator: ogerin), 2.24. The surface expression score in data set [2] was 0.138.

As to E161L, the cAMP reporter score was -0.581 in data set [1] (pH 5.5); 1 in data set [1] (pH 6); 0.833 in data set [1] (pH 6, modulator: ogerin). The surface expression score in data set [2] is 1.67.

In the case of E161A, the cAMP reporter score in data set [1] (pH 5.5) was 0.555; in data set [1] (pH 6), 3.66; in data set [1] (pH 6, modulator: ogerin), 0.6. Besides, in data set [2], the surface expression score came to 0.87.

Consider E161H, for which the cAMP reporter score in data set [1] (pH 5.5) was 0.144; in data set [1] (pH 6), -0.379; in data set [1] (pH 6, modulator: ogerin) it was 0.2; in data set [1] (pH 6.5, modulator: ogerin), -1.09. Also, the surface expression score in data set [2] was found to be 0.685.

Regarding E161I, the cAMP reporter score in data set [1] (pH 5.5) was -0.369; in data set [1] (pH 6), -1.05; in data set [1] (pH 6, modulator: ogerin), -0.656; in data set [1] (pH 6.5, modulator: ogerin), -0.994. Also, the surface expression score in data set [2] is -0.262.

Consider E161M, for which the cAMP reporter score in data set [1] (pH 5.5) worked out at 0.414; in data set [1] (pH 6), 3.52. Also, in data set [2], the surface expression score amounted to 1.26.

In the case of E161Q, the cAMP reporter score in data set [1] (pH 5.5) was -0.646; in data set [1] (pH 6), 1.12; in data set [1] (pH 6, modulator: ogerin), 1.03; in data set [1] (pH 6.5, modulator: ogerin) it was 2.7.

For E161S, the cAMP reporter score in data set [1] (pH 5.5) is -0.233; in data set [1] (pH 6), 4.95; in data set [1] (pH 6, modulator: ogerin), 0.82; in data set [1] (pH 6.5, modulator: ogerin), 2.69. In addition, in data set [2], the surface expression score was determined as 0.038.

Regarding V171_C172insGS, the cAMP reporter score is -1.71 in data set [1] (pH 5.5); -1.2 in data set [1] (pH 6); -2.16 in data set [1] (pH 6, modulator: ogerin); -1.05 in data set [1] (pH 6.5, modulator: ogerin). For the same variant, the surface expression score in data set [2] is -0.145.

For the variant D165del, the cAMP reporter score was -0.139 in data set [1] (pH 5.5); -1.03 in data set [1] (pH 6); -0.29 in data set [1] (pH 6, modulator: ogerin); -0.315 in data set [1] (pH 6.5, modulator: ogerin). In data set [2], the surface expression score was 0.802.

On to N167_Q168insGS, for which the cAMP reporter score in data set [1] (pH 5.5) was -1.29; in data set [1] (pH 6), -1.35; in data set [1] (pH 6, modulator: ogerin) it was -1.8; in data set [1] (pH 6.5, modulator: ogerin), -1.75. The surface expression score in data set [2] was 0.736.

In the case of C172_F173insGS, the cAMP reporter score in data set [1] (pH 5.5) was -0.434; in data set [1] (pH 6), -0.622; in data set [1] (pH 6, modulator: ogerin) it was -1.1. The surface expression score in data set [2] was -0.058.

As to E160_E161insG, the cAMP reporter score is -1.14 in data set [1] (pH 5.5); -1.51 in data set [1] (pH 6, modulator: ogerin); -1.03 in data set [1] (pH 6.5, modulator: ogerin). In addition, the surface expression score in data set [2] is -0.69.

As to R170_V171insG, the cAMP reporter score is -0.575 in data set [1] (pH 5.5); -0.646 in data set [1] (pH 6); -1.7 in data set [1] (pH 6, modulator: ogerin); -1.12 in data set [1] (pH 6.5, modulator: ogerin). For the same variant, the surface expression score in data set [2] came out at 0.897.

Turning to V171del, the cAMP reporter score in data set [1] (pH 5.5) is -1.08; in data set [1] (pH 6, modulator: ogerin), -1.5; in data set [1] (pH 6.5, modulator: ogerin), -1.06. The surface expression score in data set [2] turned out to be 0.059.

As to I163_E164insGSG, the cAMP reporter score in data set [1] (pH 5.5) was -1.75; in data set [1] (pH 6) it was -1.68; in data set [1] (pH 6, modulator: ogerin), -0.153; in data set [1] (pH 6.5, modulator: ogerin), -0.142. Besides, in data set [2], the surface expression score worked out at 0.585.

Turning to E166_Q168del, the cAMP reporter score is -2.01 in data set [1] (pH 5.5); -0.017 in data set [1] (pH 6); -1.79 in data set [1] (pH 6, modulator: ogerin); -0.812 in data set [1] (pH 6.5, modulator: ogerin). In data set [2], the surface expression score amounted to 1.72.

Consider E160C, for which the cAMP reporter score was 0.004 in data set [1] (pH 5.5); 0.913 in data set [1] (pH 6); -0.342 in data set [1] (pH 6, modulator: ogerin); 0.795 in data set [1] (pH 6.5, modulator: ogerin). For the same variant, the surface expression score in data set [2] was -0.798.

On to E160H, for which the cAMP reporter score in data set [1] (pH 5.5) is -0.087; in data set [1] (pH 6, modulator: ogerin), 1.02; in data set [1] (pH 6.5, modulator: ogerin) it was 1.96. Moreover, the surface expression score in data set [2] was determined as 0.925.

E160F: the cAMP reporter score in data set [1] (pH 5.5) was -0.592; in data set [1] (pH 6) it was -0.618; in data set [1] (pH 6, modulator: ogerin), -0.839; in data set [1] (pH 6.5, modulator: ogerin), 2.34. Moreover, the surface expression score in data set [2] was -0.06.

For E160Q, the cAMP reporter score in data set [1] (pH 5.5) was 0.981; in data set [1] (pH 6, modulator: ogerin), 1.87; in data set [1] (pH 6.5, modulator: ogerin), 4.01. Further, the surface expression score in data set [2] came to 1.54.
